Consider 57 compounds from paper PMC4336329 (PLoS ONE, 2015).

Molecules are shown by their SMILES. About 14,000 (4.5%) of roughly 310,000 compounds showed an effect of 50% or more. Effects have a minus sign here. Some of the results follow.
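Also: peak tail current of the secondary pulse compared with the same well before compound.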

In this experiment the target is human ether-à-go-go-related gene (hERG) potassium channel (human, UniProt Q12809). Put plainly: primary screen, population patch clamp on CHO cells stably expressing hERG.
Chain of human ether-à-go-go-related gene (hERG) potassium channel (Q12809 whole entry, looked up): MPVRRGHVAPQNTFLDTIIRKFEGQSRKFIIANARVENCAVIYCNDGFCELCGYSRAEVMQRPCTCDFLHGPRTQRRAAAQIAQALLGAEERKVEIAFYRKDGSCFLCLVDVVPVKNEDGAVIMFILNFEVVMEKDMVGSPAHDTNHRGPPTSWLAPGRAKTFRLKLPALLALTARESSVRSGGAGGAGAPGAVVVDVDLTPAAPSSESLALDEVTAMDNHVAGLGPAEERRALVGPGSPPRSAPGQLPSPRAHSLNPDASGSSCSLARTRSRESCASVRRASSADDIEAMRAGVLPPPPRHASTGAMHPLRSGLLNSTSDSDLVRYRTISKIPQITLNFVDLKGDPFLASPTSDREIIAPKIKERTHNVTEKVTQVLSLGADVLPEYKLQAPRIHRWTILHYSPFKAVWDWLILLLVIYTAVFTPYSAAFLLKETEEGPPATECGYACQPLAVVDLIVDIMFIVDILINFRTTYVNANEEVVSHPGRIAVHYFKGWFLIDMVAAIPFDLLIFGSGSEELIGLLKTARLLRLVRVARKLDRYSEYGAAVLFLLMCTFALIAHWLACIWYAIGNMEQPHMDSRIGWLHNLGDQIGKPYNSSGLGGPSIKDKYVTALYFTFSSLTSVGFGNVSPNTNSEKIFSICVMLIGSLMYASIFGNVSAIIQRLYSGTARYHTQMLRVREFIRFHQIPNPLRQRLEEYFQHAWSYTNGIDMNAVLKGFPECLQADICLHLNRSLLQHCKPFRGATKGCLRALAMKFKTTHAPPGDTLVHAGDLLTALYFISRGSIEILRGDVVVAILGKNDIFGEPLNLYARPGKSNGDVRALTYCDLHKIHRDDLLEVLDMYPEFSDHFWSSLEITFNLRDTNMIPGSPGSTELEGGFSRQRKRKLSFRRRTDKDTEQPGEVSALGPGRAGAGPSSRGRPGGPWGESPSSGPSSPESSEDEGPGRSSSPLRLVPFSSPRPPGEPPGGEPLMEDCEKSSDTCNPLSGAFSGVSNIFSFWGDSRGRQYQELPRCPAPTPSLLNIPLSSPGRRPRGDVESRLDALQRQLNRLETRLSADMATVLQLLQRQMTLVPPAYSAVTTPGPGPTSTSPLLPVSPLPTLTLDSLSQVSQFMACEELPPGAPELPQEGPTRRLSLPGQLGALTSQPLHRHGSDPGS
On to `NNc1nc(-c2ccccc2)c2cc(Cl)ccc2n1`, for which the “hERG current change (%, negative = inhibition) at 10uM” value was -11.3%.

Regarding `Cc1ccc2nc(C)cc(N/N=C/c3cccc(O)c3)c2c1`, the “hERG current change (%, negative = inhibition) at 10uM” value came out at 12.4%.

On to `COC(=O)c1ccc([C@@H](O)[C@H](C)C(=O)CC(=O)OC(C)(C)C)cc1`, for which the “hERG current change (%, negative = inhibition) at 10uM” value came to 11.4%.

Consider `O=C(C1CCN(S(=O)(=O)c2cc(Cl)ccc2Cl)CC1)N1CCOCC1`, for which the “hERG current change (%, negative = inhibition) at 10uM” value came out at 4.29%.

With `O=C(CCl)NC(=O)NC12CC3CC(CC(C3)C1)C2`, the “hERG current change (%, negative = inhibition) at 10uM” value came out at 10.7%.

On to `COCCCNC(=O)/C(C#N)=C/c1c(N2CCN(c3cccc(Cl)c3)CC2)nc2c(C)cccn2c1=O`, for which the “hERG current change (%, negative = inhibition) at 10uM” value is 5.69%.

For the compound `C=CCNC(=S)N1CCN(CCN=CC2=C(O)CC(c3ccco3)CC2=O)CC1` (stereo not drawn), the “hERG current change (%, negative = inhibition) at 10uM” value is -25.8%.

Turning to `O=C(Cn1nnc2ccccc21)Nc1ccc(Cl)cn1`, the “hERG current change (%, negative = inhibition) at 10uM” value came to 8.68%.

Turning to `COc1ccc(S(=O)(=O)/C(C#N)=C/Nc2ccc(NC(C)=O)cc2)cc1`, the “hERG current change (%, negative = inhibition) at 10uM” value came out at 13.6%.

With `CC(=O)Nc1cccc(/C(C)=N/NC(=O)c2ccccc2Cl)c1`, the “hERG current change (%, negative = inhibition) at 10uM” value turned out to be 15.8%.

With `O=C(Cn1cc([N+](=O)[O-])ccc1=O)NCc1ccc(Cl)cc1Cl`, the “hERG current change (%, negative = inhibition) at 10uM” value is reported as -5.73%.

In the case of `CCOc1ccc(C(=O)NCc2ccccn2)cc1`, the “hERG current change (%, negative = inhibition) at 10uM” value amounted to 6.87%.

With `COc1ccc(-c2cc(C(=O)O)no2)cc1`, the “hERG current change (%, negative = inhibition) at 10uM” value is reported as 23.5%.

With `O=C1c2ccccc2C(=O)c2c1cccc2-n1nnc2ccccc21`, the “hERG current change (%, negative = inhibition) at 10uM” value turned out to be 11.7%.

For `Cc1ccccc1NC(=O)CCCCC(=O)Nc1ccccc1C`, the “hERG current change (%, negative = inhibition) at 10uM” value turned out to be 15.5%.

With `CCC(=O)OC1(C)C(=O)C=C2C=C(c3ccsc3)OC=C2C1=O` (stereo not drawn), the “hERG current change (%, negative = inhibition) at 10uM” value is given as 6.52%.

As to `Cc1ccc(-c2cccc(CN3CCN(C(C)C)C(CCO)C3)c2)o1` (stereo not drawn), the “hERG current change (%, negative = inhibition) at 10uM” value worked out at 13.4%.

For the compound `COc1ccc2c(c1)CCc1c(C(=O)NCc3ccc(Cl)cc3)noc1-2`, the “hERG current change (%, negative = inhibition) at 10uM” value was determined as 19.9%.

Turning to `CCOc1ccccc1NC(=O)CNC(=O)CNC(=O)Cc1ccccc1`, the “hERG current change (%, negative = inhibition) at 10uM” value was found to be 22.4%.

As to `COCCNC(=O)c1cc2nc3c(c(C(F)(F)F)n2n1)CCc1ccccc1-3`, the “hERG current change (%, negative = inhibition) at 10uM” value amounted to 21.6%.

Consider `COc1ccc(-c2cc(C(=O)Nc3sc4c(c3C#N)CCCC4)c3ccccc3n2)cc1`, for which the “hERG current change (%, negative = inhibition) at 10uM” value is reported as -4.56%.

On to `C=C(C)CSc1nc2ncccc2[nH]1`, for which the “hERG current change (%, negative = inhibition) at 10uM” value came out at 0.0608%.

For the compound `COc1cc(C=C(C(C)=O)C(C)=O)ccc1O`, the “hERG current change (%, negative = inhibition) at 10uM” value is recorded as 12.6%.

As to `COC(=O)c1cc2occc2n1Cc1nc(-c2ccc(Cl)cc2)oc1C`, the “hERG current change (%, negative = inhibition) at 10uM” value was determined as 11.4%.

As for `Cc1cc(CN2CCN(CC(=O)Nc3cc(C(F)(F)F)ccc3-n3cncn3)CC2)no1`, the “hERG current change (%, negative = inhibition) at 10uM” value is -69.8%.

`Cc1ccc(Oc2ccccc2/C=C2\SC(=O)N(C)C2=O)cc1`: the “hERG current change (%, negative = inhibition) at 10uM” value turned out to be 4.1%.

Take `Cc1c(C(=O)N2CCOCC2)c(S(=O)(=O)Nc2ccccc2F)c(C)n1C`: the “hERG current change (%, negative = inhibition) at 10uM” value came out at 6.11%.

As to `COc1ccc(-n2c(O)c(C(C)=NCCN3CCNCC3)c(=O)[nH]c2=O)cc1`, the “hERG current change (%, negative = inhibition) at 10uM” value was found to be 10.8%.

Turning to `O=C1Cc2cc(NS(=O)(=O)c3cc(F)ccc3F)cc3c2N1CCC3`, the “hERG current change (%, negative = inhibition) at 10uM” value is -2.87%.

Regarding `CN1C(=S)SC(/[N+]([O-])=C/c2c(F)cccc2Cl)C1(C)C` (stereo not drawn), the “hERG current change (%, negative = inhibition) at 10uM” value was 16.1%.

As for `CC1(C)CC(=O)C2=C(C1)Nc1ccccc1NC2c1nc2ccccc2[nH]1` (stereo not drawn), the “hERG current change (%, negative = inhibition) at 10uM” value stood at 2.22%.

With `COc1cc(C(C)=O)ccc1OCC(O)Cn1nc(C)c(Br)c1C` (stereo not drawn), the “hERG current change (%, negative = inhibition) at 10uM” value is on record as -7%.

With `CN(CC(=O)Nc1ccc(Cl)c(S(=O)(=O)N(C)C)c1)Cc1ccccc1`, the “hERG current change (%, negative = inhibition) at 10uM” value is -7.18%.

For `O=C1c2ccccc2C(=O)N1CCOCCN1C(=O)c2ccccc2C1=O`, the “hERG current change (%, negative = inhibition) at 10uM” value is 0.531%.

Turning to `N#CCCN(Cc1cccs1)C(=O)Nc1ccc(F)cc1`, the “hERG current change (%, negative = inhibition) at 10uM” value was -3.21%.

For the compound `Cc1ccc(C(=O)O/N=C2/CC3CCC2(C)[C@@]3(C)CBr)cc1` (stereo partly drawn), the “hERG current change (%, negative = inhibition) at 10uM” value is given as 6.67%.

Consider `CCC(NC(=O)Nc1ccc(O)cc1)(C(F)(F)F)C(F)(F)F`, for which the “hERG current change (%, negative = inhibition) at 10uM” value is 19.3%.

Take `Cc1nc(=S)c2ccccc2[nH]1`: the “hERG current change (%, negative = inhibition) at 10uM” value is recorded as 11.9%.

Consider `CCOCCCNC(=S)N(CCN(CC)CC)Cc1cc2cc3c(cc2[nH]c1=O)OCCO3`, for which the “hERG current change (%, negative = inhibition) at 10uM” value was 7.75%.

For the compound `Cc1ccc(-n2nc3c(=O)n(CCCC(=O)NCc4ccc(F)cc4)nc(C)c3c2C)cc1`, the “hERG current change (%, negative = inhibition) at 10uM” value is reported as -76.5%.

Regarding `CCOC(=O)C1Nc2ccc(C)cc2C2C=CCC12` (stereo not drawn), the “hERG current change (%, negative = inhibition) at 10uM” value is on record as 3.54%.

`COC(=O)c1c(NC(=O)CS(=O)(=O)c2ccccc2)sc(C)c1C`: the “hERG current change (%, negative = inhibition) at 10uM” value is listed as -21.6%.

Regarding `CC1CCN(c2ncnc3ccccc23)CC1.Cl`, the “hERG current change (%, negative = inhibition) at 10uM” value is recorded as -11.8%.

Take `C=CCNC(=O)CSc1nnc(-c2cccs2)o1`: the “hERG current change (%, negative = inhibition) at 10uM” value is -0.265%.

In the case of `CCOC(=O)C1=C(CN2CCOCC2)NC(=O)NC1c1cccc([N+](=O)[O-])c1` (stereo not drawn), the “hERG current change (%, negative = inhibition) at 10uM” value was -14.8%.

For the compound `F[B-](F)(F)F.OCCC[NH+]=c1cc(-c2ccccc2)oc2ccc(Cl)cc12`, the “hERG current change (%, negative = inhibition) at 10uM” value is -79.1%.

In the case of `CCCN(C(=O)c1c(CC)noc1C)c1c(N)n(Cc2ccccc2)c(=O)[nH]c1=O`, the “hERG current change (%, negative = inhibition) at 10uM” value is recorded as 4.93%.

For `O=C(O)CSc1nc(-c2ccc(Cl)cc2)nc2c1oc1ccccc12`, the “hERG current change (%, negative = inhibition) at 10uM” value stood at 3.82%.

With `Cc1cc(C(=O)CN2C(=O)CCC2=O)c(C)n1Cc1ccccc1`, the “hERG current change (%, negative = inhibition) at 10uM” value is recorded as -2.44%.

Take `NC(=O)COC(=O)C1c2ccccc2Oc2ccccc21`: the “hERG current change (%, negative = inhibition) at 10uM” value is reported as -0.77%.

In the case of `CCCCN(C)c1ccc([N+](=O)[O-])cc1`, the “hERG current change (%, negative = inhibition) at 10uM” value is recorded as -1.32%.

With `COC(=O)c1ccc(NC(=S)NCCC2=CCCCC2)cc1`, the “hERG current change (%, negative = inhibition) at 10uM” value is -4.67%.

In the case of `Cc1ccc2nc(NNC(=O)c3ccc4c(c3)OCCO4)sc2c1`, the “hERG current change (%, negative = inhibition) at 10uM” value was 8.39%.

Take `COCCOc1ccc(C(F)(F)F)cc1NC(=O)CN1C(=O)NC(C)(c2ccc3c(c2)OCO3)C1=O` (stereo not drawn): the “hERG current change (%, negative = inhibition) at 10uM” value is on record as -4.8%.

As to `COc1cccc(CNC(=O)C2CCCN(c3nn4c(=O)cc(C)nc4s3)C2)c1OC` (stereo not drawn), the “hERG current change (%, negative = inhibition) at 10uM” value turned out to be 5.44%.

Take `O=C(NNc1c(Cl)cccc1Cl)c1c(F)cccc1Cl`: the “hERG current change (%, negative = inhibition) at 10uM” value is 11.7%.

Take `C/C(=N\NC(=O)c1cc2c(s1)CCC(C)C2)c1ccc[nH]1` (stereo not drawn): the “hERG current change (%, negative = inhibition) at 10uM” value was found to be 10%.
